# Data: PubChem BioAssay AID1159614 (National Center for Advancing Translational Sciences (NCATS), 2016)
# Among all 45,000 compounds or so, about 65 (0.1%) were called active. Calls come from the whole dose curve; as a rule, active = well fitted activation curve with a large enough effect; inconclusive = small, poorly fitted or top-dose-only effect; inactive = no such curve, though single readings can be large or run the other way. The list shows a part of the results.
# Target: Galactocerebrosidase (Homo sapiens) (UniProt P54803)
# Experiment: A Novel Cell-Based Assay to Identify Small Molecules for B -Galactocerebrosidase; note: 0% is about no effect; nearly all actives have a fitted effect of over 65% in size
# Settings: 145M-Twi-hGALC-G270D cells (Twitcher mouse brain line with human GALC G270D), HMU-beta-Gal fluorescence, 48 h; series mostly up to 57.5 µM; activation: at the top concentration
# Procedure, shortened: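 Brain-derived Twitcher mouse 145M-Twi cells stably expressing human GALC-G270D or wild-type GALC, treated live, then residual GALC activity read by fluorescence of HMU-b-Gal substrate (0.1 mM final) in citrate-phosphate buffer pH 5.2 with sodium taurocholate. Signal increase indicates enhancement.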
# Chain of UniProt P54803 (P54803 whole entry, looked up): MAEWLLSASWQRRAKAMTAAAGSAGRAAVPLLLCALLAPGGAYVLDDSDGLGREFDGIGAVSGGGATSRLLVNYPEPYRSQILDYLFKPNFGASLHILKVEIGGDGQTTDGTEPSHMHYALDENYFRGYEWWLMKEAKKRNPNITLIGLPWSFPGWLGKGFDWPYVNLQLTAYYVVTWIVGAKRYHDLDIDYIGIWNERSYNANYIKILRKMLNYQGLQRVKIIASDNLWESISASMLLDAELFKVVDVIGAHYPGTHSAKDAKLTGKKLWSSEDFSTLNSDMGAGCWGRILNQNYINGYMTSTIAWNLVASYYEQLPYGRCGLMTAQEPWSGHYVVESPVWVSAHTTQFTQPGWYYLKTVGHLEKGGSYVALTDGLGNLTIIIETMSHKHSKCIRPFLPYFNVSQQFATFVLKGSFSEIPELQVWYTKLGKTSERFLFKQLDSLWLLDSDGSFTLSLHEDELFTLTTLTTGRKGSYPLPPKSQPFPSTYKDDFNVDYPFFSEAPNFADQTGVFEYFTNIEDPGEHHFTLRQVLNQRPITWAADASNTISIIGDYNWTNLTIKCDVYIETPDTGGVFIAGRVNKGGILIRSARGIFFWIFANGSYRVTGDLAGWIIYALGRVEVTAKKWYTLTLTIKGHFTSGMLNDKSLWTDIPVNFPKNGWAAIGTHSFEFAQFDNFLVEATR
row,Compound,activation
1,Cc1oc(-c2ccccc2)nc1CNC(=O)Nc1ccccc1,inactive: -9.32%
2,CCOC(=O)C1=C(CN2CCC(C(=O)OCC)CC2)NC(=O)NC1c1ccc(Cl)cc1 (stereo not drawn),inactive: -34.4%
3,Cc1ccc(NCc2nnc3n2CCCCC3)cc1Cl,inactive: -22%
4,CCOCCCNC(=O)CCc1nnc2ccc(N3CCN(c4cccc(OC)c4)CC3)nn12,inactive: -0.541%
5,CCOC(=O)c1ccccc1NC(=O)CCc1c(C)nc2ncnn2c1C,inactive: -11.2%
6,Cc1cccc(NC(=O)CSc2nc3c([nH]c4ccccc43)c(=O)n2C)c1,inactive: -3.19%
7,CCOc1ccc(-n2c(=O)c3c(C)c(C(=O)N(C)C)sc3n(CC(=O)Nc3c(C)cc(C)cc3C)c2=O)cc1,inactive: -4.82%
8,COc1ccc2c(Sc3ccc(Cl)cc3)c(C(=O)NCCCN3CCCCC3)[nH]c2c1,inactive: -31.5%
9,Cc1ccc(CN(C(=O)COc2ccc(C)c(C)c2)C2CCS(=O)(=O)C2)o1 (stereo not drawn),inactive: -5.18%
10,CCOc1ccc(S(=O)(=O)N2CCN(c3ccccc3)CC2)cc1C(N)=O,inactive: -12.1%
11,Cc1ccc(Nc2c(-c3ccccc3O)nc3ccc(Br)cn23)cc1,inactive: -10.8%
12,CC(C)N(C(=O)Cn1cc(S(=O)(=O)Cc2ccc(C(F)(F)F)cc2)c2ccccc21)C(C)C,inactive: -10%
13,COc1ccc(S(=O)(=O)Nc2cc(-c3cn4ccccc4n3)ccc2C)cc1,inactive: -19%
14,COc1ccc(NC(=O)Nc2nnc(N(C)C3CCCCC3)s2)c(OC)c1,inactive: -13.5%
15,O=C(NCCc1ccccc1)c1c[nH]c2ccc(S(=O)(=O)Nc3ccccc3F)cc2c1=O,inactive: -13.5%
16,COc1cc(C(=O)Nc2ccc(OCc3cc(=O)n4cc(C)sc4n3)cc2)cc(OC)c1OC,inactive: 5.37%
17,Cc1ccccc1NC(=O)CSc1nc2c(oc3ccccc32)c(=O)n1-c1ccccc1F,inactive: -8.62%
18,CC1CCN(C(=O)c2cc(-c3ccc(Cl)cc3)on2)CC1,inactive: -10.2%
19,CCOC(=O)c1sc(NC(=O)COc2ccccc2Cl)c(C(=O)OCC)c1C,inactive: -14.8%
20,O=C(Nc1ccc(O)c(-c2nc3ccccc3o2)c1)c1ccco1,inactive: 0.0647%
21,CCc1ccc(S(=O)(=O)c2nnn3c2nc(NC2CCCC2)c2sccc23)cc1,inactive: -10.2%
22,COc1ccc(C)cc1NC(=O)CCS(=O)(=O)c1ccc2c(c1)CC(=O)N2C,inactive: -5.92%
23,COc1ccc(CCNC(=O)CCc2c(C)nc3nc(C)nn3c2C)cc1OC,inactive: 2.15%
24,COc1cc(OC)c(NC(=O)Nc2ccccc2OCc2cc(=O)n3cc(C)ccc3n2)cc1Cl,inactive: -0.543%

row,Compound,activation
1,COCCNC(=O)c1cc(Sc2ccc(F)cc2F)nc2ccccc12,inactive: -11.3%
2,CC1=C(C(=O)OCC2CCCCC2)C(c2c(F)cccc2Cl)CC(=O)N1 (stereo not drawn),inactive: -13.2%
3,Cc1cccc(-n2c(=O)c3c(c4cc(C)ccc4n3C)n(Cc3ccccc3F)c2=O)c1,inactive: -15.5%
4,COc1ccc(Cn2c(SCc3ccc(C(=O)NCc4ccccc4F)cc3)nc3cccnc32)cc1,inactive: -9.7%
5,O=C(CSc1ccc2ccccc2n1)Nc1nsc(-c2ccc(Cl)cc2)n1,inactive: -26%
6,O=C(c1ccc2c(c1)N(Cc1ccc(F)cc1)C(=O)c1ccccc1S2(=O)=O)N1CCC(Cc2ccccc2)CC1,inactive: -10.4%
7,COc1ccc(-n2ccn(Cc3ccc(C)cc3)c(=O)c2=O)cc1OC,inactive: -6.08%
8,CC(=O)N1c2nc(-c3ccco3)nn2C2(CCCCC2)[C@@H]2CCCC[C@@H]21,inactive: -9.28%
9,COc1ccc(NC(=O)CN(C)S(=O)(=O)c2ccc3[nH]c4c(c3c2)CCCC4)cc1Cl,inactive: -11.1%
10,COc1ccc(-c2noc(N3CCC(C(=O)Nc4ccc(C)c(F)c4)CC3)n2)cc1OC,inactive: -6.64%
11,COc1ccc(Cl)cc1NC(=O)CCCn1c(C)c2cnn(-c3ccccc3)c(=O)c2c1C,inactive: -2.77%
12,Cc1ccc(Cl)cc1N1C(=O)N(Cc2ccc(C#N)cc2)c2ccccc2S1(=O)=O,inactive: -5.26%
13,COc1ccc(C2=Nc3ccc(C)cc3NC(c3ccc(Cl)cc3)=N2)cc1,inactive: -12.3%
14,COc1ccc(CNC(=O)c2cccc(NC(=O)N3CCSc4ncccc43)c2)cc1,inactive: -7.61%
15,Cc1ccc(NC(=O)CC2Nc3cccc4cccc(c34)NC2=O)cc1 (stereo not drawn),inactive: 4.07%
16,CCCCNC(=O)CSc1nc2ccccc2nc1Cc1ccc(Cl)cc1,inactive: -12.3%
17,CCOc1cccc2cc(-c3nc4sc5c(c4c(=O)[nH]3)CCC(C)C5)c(=O)oc12 (stereo not drawn),inactive: -13.8%
18,COc1ccc(NC(=O)CCNS(=O)(=O)c2cccc3nsnc23)cc1OC,inactive: -5.75%
19,COc1ccc(N(Cc2ccccc2)C(=O)c2nc(SC)ncc2Cl)cc1,inactive: -13.8%
20,COc1cccc(Cn2c(=O)n(-c3ccc(Br)cc3F)c(=O)c3sc4ccccc4c32)c1,inactive: -7.85%
21,Cc1ccc2nc(N(CCCN(C)C)C(=O)c3ccc(Br)s3)sc2c1,inactive: -10%
22,CCCOc1cccc(C(=O)N(Cc2cc(OC)c(OC)c(OC)c2)C2CCS(=O)(=O)C2)c1 (stereo not drawn),inactive: -22.5%
23,CCn1c(CN2CCC(C)CC2)nc2cc(NC(=O)COc3ccc([N+](=O)[O-])cc3)ccc21,inactive: -18%
24,CC(C)c1ccc(NC(=O)c2cccn2-c2nnc(N3CCCCC3)s2)cc1,inactive: -31.2%
